Source: publication PMC4947185, “Identification of an ATP-controlled allosteric switch that controls actin filament nucleation by Arp2/3 complex” (Nature Communications, 2016)

Legend:
[1] = target: T1, S. cerevisiae Arp3(L155C, L445D/F446D) (S. cerevisiae, UniProt P47117, L155C | L445D | F446D); experiment: cross-linking; short-pitch crosslinking assay with ATP: 1 μM purified ScArp2/3 complex with Arp2(R198C)/Arp3(L155C), 25 μM BMOE, 100-200 μM ATP, 1 mM MgCl2, 50 mM KCl, 10 mM imidazole pH 7.0, 1 mM EGTA, 21 °C, 30 s to 5 min; anti-Arp2/anti-Arp3 western blot; conditions: both partners purified
T1 construct: Arp3, S. cerevisiae; made on the arp3(L155C) template in pRS315; Stood in the assay as a subunit of the seven-subunit Arp2/3 complex; also called Arp3(L445D/F446D); Arp3(L445D and F446D); source: S. cerevisiae, subunit of the purified Arp2/3 complex

[2] = target: T2, S. cerevisiae Arp3(L155C) (S. cerevisiae, UniProt P47117, L155C); experiment: as above; conditions: both partners purified
T2 construct: Arp3, S. cerevisiae; arp3(L155C) with native promoter and terminator on pRS315, sole copy of Arp3; Stood in the assay as a subunit of the seven-subunit Arp2/3 complex, not as a free protein; also called ScArp3; source: S. cerevisiae, subunit of the purified Arp2/3 complex

Row | Binder | fold crosslinking over the wild-type complex (1 min, with ATP) [2] | further results
1 | S. cerevisiae Arp2(R198C) (natural protein, Arp2, S. cerevisiae; arp2(R198C) with native promoter and terminator on pRS317, sole copy of Arp2; Stood in the assay as a subunit of the seven-subunit Arp2/3 complex, not as a free protein; also called ScArp2; source: S. cerevisiae, subunit of the purified Arp2/3 complex) not shown |  | binding result [1]: binds
2 | S. cerevisiae Arp2(R198C, A207C) (natural protein, Arp2, S. cerevisiae; splayed interface mutation made on the arp2(R198C) template in pRS317; Stood in the assay as a subunit of the seven-subunit Arp2/3 complex; also called Arp2(A207C); source: S. cerevisiae, subunit of the purified Arp2/3 complex) not shown | 6 fold | 
3 | S. cerevisiae Arp2(R198C, A207I) (natural protein, Arp2, S. cerevisiae; splayed interface mutation made on the arp2(R198C) template in pRS317; Stood in the assay as a subunit of the seven-subunit Arp2/3 complex; also called Arp2(A207I); source: S. cerevisiae, subunit of the purified Arp2/3 complex) not shown |  | binding result [2]: binds
4 | S. cerevisiae Arp2(R198C, A207W) (natural protein, Arp2, S. cerevisiae; splayed interface mutation made on the arp2(R198C) template in pRS317; Stood in the assay as a subunit of the seven-subunit Arp2/3 complex; also called […]W; Arp2(A207W); source: S. cerevisiae, subunit of the purified Arp2/3 complex) not shown | 5 fold | 
5 | S. cerevisiae Arp2(R198C, F203Y) (natural protein, Arp2, S. cerevisiae; splayed interface mutation made on the arp2(R198C) template in pRS317; Stood in the assay as a subunit of the seven-subunit Arp2/3 complex; also called Arp2(F203Y); source: S. cerevisiae, subunit of the purified Arp2/3 complex) not shown | 12 fold | 
